Assay results: PubChem BioAssay AID1468 (National Center for Advancing Translational Sciences (NCATS), 2008)
The campaign covered roughly 280,000 compounds. About 1,100 (0.39%) were called active. Inconclusive means that the source gave no clear call. Such entries were picked first, then a sample of the others. Calls follow the shape of the dose curve; as a rule, active = well fitted inhibition curve with a large enough effect; inconclusive = small, poorly fitted or top-dose-only effect, or effect the other way; inactive = flat fitted curve, though single readings scatter. Potencies of inconclusive entries are left out as doubtful fits.

target: Microtubule-associated protein tau (Homo sapiens) (UniProt P10636); test: qHTS for Inhibitors of Tau Fibril Formation, Fluorescence Polarization; conditions: K18 P301L tau heparin fibrillization, Alexa594 FP, 6 h; series mostly up to 57.7 µM; also: nearly all actives have a fitted effect of over 55% in size
Procedure, shortened: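 Steps: dispense K18 P301L tau (15 uM plus 0.24 uM Alexa 594 tracer, final) in pH 7 sodium acetate; add compound; add heparin (20 uM final); incubate 6 hr, 37 C; add ThT (30 uM final); after 1 hr ambient, read FP.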
% is scaled to controls: 0 for no effect and ±100 for the full control effect; potency is read from the fitted curve at half-maximal effect; tags tell the direction and shape of the fitted curve.

Sequence of UniProt P10636 (P10636 whole entry, looked up): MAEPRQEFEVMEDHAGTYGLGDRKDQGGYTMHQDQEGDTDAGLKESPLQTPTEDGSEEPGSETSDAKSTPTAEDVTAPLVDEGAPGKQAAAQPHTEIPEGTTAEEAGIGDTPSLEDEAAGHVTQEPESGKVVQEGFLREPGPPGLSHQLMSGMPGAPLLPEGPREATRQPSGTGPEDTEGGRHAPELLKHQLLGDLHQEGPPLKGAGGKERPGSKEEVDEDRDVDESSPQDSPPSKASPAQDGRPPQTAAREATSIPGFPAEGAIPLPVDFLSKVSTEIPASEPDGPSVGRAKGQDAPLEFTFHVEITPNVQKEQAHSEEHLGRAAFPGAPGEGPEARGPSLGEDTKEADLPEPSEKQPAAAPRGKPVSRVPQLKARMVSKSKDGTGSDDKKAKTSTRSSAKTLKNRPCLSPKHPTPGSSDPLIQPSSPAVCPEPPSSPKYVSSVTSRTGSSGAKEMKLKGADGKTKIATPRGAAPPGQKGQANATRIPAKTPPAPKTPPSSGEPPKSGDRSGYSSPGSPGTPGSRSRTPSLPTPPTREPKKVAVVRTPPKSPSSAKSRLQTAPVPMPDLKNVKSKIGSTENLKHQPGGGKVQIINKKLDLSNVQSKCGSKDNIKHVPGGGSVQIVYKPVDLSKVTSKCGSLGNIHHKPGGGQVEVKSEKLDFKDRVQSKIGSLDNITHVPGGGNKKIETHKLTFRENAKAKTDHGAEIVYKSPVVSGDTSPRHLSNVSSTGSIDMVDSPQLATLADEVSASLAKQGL

| SMILES | Potency | activity, negative = inhibition |
| --- | --- | --- |
| O=c1cc(CO)oc(C(Nc2ccccn2)c2ccccc2Cl)c1O (stereo not drawn) | inconclusive [inhibitor, single point] |  |
| CCSc1nnc(NC(=O)Nc2cccc(C)c2)s1 | inconclusive [inhibitor, partial curve] |  |
| COc1c(N2CCNC(C)C2)c(F)cc2c(=O)c(C(=O)O)cn(C3CC3)c12 (stereo not drawn) | inactive |  |
| COc1ccc(-n2c(=O)c3ccc(C(=O)NCc4ccc(C)cc4)cc3n(Cc3ccc(F)cc3Cl)c2=O)cc1 | inactive |  |
| Cc1c(Br)c(C(=O)NNC(=O)c2ccc(C(C)(C)C)cc2)nn1C | inactive |  |
| COc1ccc(N(C(=O)c2cccnc2)S(=O)(=O)c2ccc3c(c2)n(C)c(=O)n3C)cc1 | inactive |  |
| CCOc1ccc(-n2c(=O)c3c(C)c(C)sc3n(Cc3c(F)cccc3Cl)c2=O)cc1 | inactive |  |
| COC(=O)c1cc2oc(C)cc2n1CC(=O)Nc1ccc(OC)c(OC)c1 | inactive |  |
| COc1ccc(OCC(=O)Nc2ccc(S(=O)(=O)N3CCN(C)CC3)cc2)cc1 | inactive |  |
| O=C(O)c1ccc2c(c1)C(=O)/C(=C\c1ccco1)C2=O | active: 15.8 µM |  |
| CC1CCCN(S(=O)(=O)c2ccc(C(=O)Nc3ccccc3-c3nc4ccccc4[nH]3)cc2)C1 (stereo not drawn) | inconclusive [inhibitor, full curve] |  |
| COc1cc(NC(=O)CN2C(=O)C(c3ccc(C)cc3)=NC23CCCCCC3)cc(OC)c1 | inconclusive [inhibitor, partial curve] |  |
| COc1cc(C(=O)Oc2ccccc2/C=N/NC(=O)c2ccc(Cl)cc2Cl)cc(OC)c1OC | inactive |  |
| OC[C@@H]1[C@@H](c2ccccc2)C(c2ccccc2)=NN1c1ccccc1 | inconclusive [activator, partial curve, poor fit] |  |
| COc1ccc(/C=N/NC(=O)c2ccn[nH]2)cc1COc1ccc([N+](=O)[O-])c(C)c1 | inconclusive [inhibitor, partial curve] |  |
| COc1ccc(NC(=O)Cc2coc3cc(C)c(C(C)C)cc23)cc1S(=O)(=O)N1CCOCC1 | inconclusive [activator, single point] |  |
| CCSc1nc(-c2ccc(OC)cc2)ccc1C#N | inconclusive [inhibitor, single point] |  |
| COc1cc(C2C(C#N)=C(N)Oc3cc(C)n(CCc4ccccc4)c(=O)c32)cc2c1OCO2 (stereo not drawn) | inconclusive [inhibitor, single point] |  |
| Cc1cc(C)cc(-n2c(=O)c3sccc3n(CC(=O)NCc3ccco3)c2=O)c1 | inconclusive [inhibitor, full curve, poor fit] |  |
| CCOC(=O)COC(=O)c1ccc(Oc2cc(C)nc(SC)n2)cc1 | inactive |  |
| NC(=Nc1ccc(N)cc1)C(N)=Nc1ccc(N)cc1 | inconclusive [inhibitor, partial curve, poor fit] |  |
| Cc1ccc(-c2noc(CCC(=O)Nc3cccc(C#N)c3)n2)cc1 | inconclusive [inhibitor, partial curve] |  |
| COc1ccc(NC(=O)C2(c3ccc(NC(=O)c4ccc(OC(C)=O)cc4)cc3)CCCC2)cc1 | inconclusive [inhibitor, single point] |  |

| SMILES | Potency | activity, negative = inhibition |
| --- | --- | --- |
| COc1ccc(CNC(=O)COC(=O)c2cc(-c3ccc(Cl)s3)nc3ccccc23)cc1 | inconclusive [inhibitor, single point] |  |
| C=CCOc1nc(-c2ccncc2)nc2ccccc12 | inconclusive [inhibitor, partial curve] |  |
| CC1(C)CC2C1CCC1(C)OC2(C)CCC1O (stereo not drawn) | inactive |  |
| Cc1ccc2[nH]c(C)c(CCNC(=O)c3cc4cc(Br)ccc4oc3=O)c2c1 | inconclusive [activator, partial curve] |  |
| COCC(=O)N1CCc2nc(-c3ccccc3)c3c(c2C1)CO[C@@H](C)C3 |  | inactive: -0.111% [at 11.6 µM] |
| FC(F)Sc1ccc(NC(=S)NC2CCCCC2)cc1 | inconclusive [inhibitor, single point] |  |
| C/C(=N\NC(=S)NC1CCCCC1)c1c(F)cccc1F | inactive |  |
| Cc1nc(N)sc1-c1csc(Nc2ccccc2)n1 | inconclusive [activator, full curve, poor fit] |  |
| O=S(=O)(c1cccc(NC(=S)Nc2ccc(Br)cc2Cl)c1)N1CCOCC1 | inconclusive [inhibitor, single point] |  |
| CCOc1ccc2nc(NC(=O)CN3CCC(n4nnc5cc(C(F)(F)F)ccc54)CC3)sc2c1 | inconclusive [inhibitor, single point] |  |
| COc1ccc(-c2ccc(/C=N/NC(=O)c3cccnc3)o2)c([N+](=O)[O-])c1 | inconclusive [activator, partial curve, poor fit] |  |
| CC(=O)OCC1(C)CN(c2ccccc2)N(C(=O)c2ccc(C(C)(C)C)cc2)C1=O (stereo not drawn) | inconclusive [inhibitor, single point] |  |
| CCn1cc(S(=O)(=O)c2cc(C)cc(C)c2)c(=O)c2cc(F)c(N3CCN(c4ccccc4)CC3)cc21 | inactive |  |
| O=C(CCl)Nc1ccccc1Sc1ccccc1 | inactive |  |
| CN1CCN(c2ccccc2NC(=O)c2cc3c(s2)-c2ccccc2OC3)CC1 | inconclusive [inhibitor, full curve, poor fit] |  |
| CCOC(=O)c1cccc(Nc2nc(-c3cccnc3)nc3ccccc23)c1 | inconclusive [inhibitor, partial curve] |  |
| O=C(c1cccs1)[C@@H]1[C@@H]2C(=O)N(Cc3ccc4c(c3)OCO4)C(=O)[C@@H]2C2c3ccccc3C=CN21 (stereo partly drawn) | inconclusive [inhibitor, single point] |  |
| COc1ccc(NC(=O)Cc2ccc(C)cc2)c([N+](=O)[O-])c1 | inactive |  |
| CN(C)c1ccc(NC(=O)c2ccc([N+](=O)[O-])cc2Cl)cc1 | inconclusive [activator, partial curve, poor fit] |  |
| Cc1cccc2cc3c(N)c(C(=O)N4CCc5ccccc54)sc3nc12 | inconclusive [activator, full curve, poor fit] |  |
| Cc1ccc(C)c(N2CCN(CC(=O)Nc3ccc([N+](=O)[O-])cc3C(=O)Nc3ccccc3F)CC2)c1 | inconclusive [activator, single point] |  |
| Cc1ccc(NC(=O)CSc2nnc(NC(=O)NC3CCCCC3)s2)cc1 | inconclusive [inhibitor, partial curve] |  |
| COc1ccccc1CNC(=O)c1ccc(N2CCOCC2)c([N+](=O)[O-])c1 | inactive |  |

| SMILES | Potency | activity, negative = inhibition |
| --- | --- | --- |
| COc1ccccc1Oc1ccc(N/C=C/C(=O)c2ccco2)cc1 | inactive |  |
| COc1cccc(NC2=Nc3cccc4cccc2c34)c1 | inactive |  |
| COc1cc(C=C(c2nc3ccccc3s2)c2nc3ccccc3s2)cc(OC)c1O | inactive |  |
| Fc1cccc(F)c1/C=C/c1ccc2ccccc2n1 | inactive |  |
| Cc1ccc(N=N/C(=C\O)C(=O)c2ccncc2)cc1 | inactive |  |
| CC(NC(=O)Nc1nnc(C(F)(F)F)s1)(C(F)(F)F)C(F)(F)F | inactive |  |
| CCCCCn1c(CN(C)Cc2ccccc2)nc2c1c(=O)n(C)c(=O)n2C | inactive |  |
| CC1(C(=O)NCc2ccccc2)Oc2ccccc2NC1=O (stereo not drawn) | inconclusive [inhibitor, single point] |  |
| O=C(O)c1ccc(N/N=C/c2ccc(C(F)(F)F)cc2)cc1 | inconclusive [activator, partial curve] |  |
| COc1ccc(Nc2cc(C)c3cc(NC(=O)COc4cccc(C)c4)ccc3n2)cc1 | inconclusive [activator, partial curve, poor fit] |  |
| CCOC(=O)c1c(C)oc(NC(=O)CCl)c1C(=O)OCC | inactive |  |
| Cc1ccc(NC(=O)COc2ccc(/C(N)=N/O)cc2)cc1C | inconclusive [inhibitor, full curve, poor fit] |  |
| CC1CCC(C(=O)O)NC1c1ccc(C#CCN(C)C)cc1 (stereo not drawn) |  | inactive: 4.55% [at 11.6 µM] |
| Nc1nc(Nc2ccc(Cl)cc2)nc2ccccc12 | inconclusive [inhibitor, single point] |  |
| CN(C)c1nnnn1-c1ccc(Cl)cc1 | inconclusive [inhibitor, single point] |  |
| Cc1c(NC(=O)COC(=O)c2cc3c4ccccc4n(C)c3s2)c(=O)n(-c2ccccc2)n1C | inconclusive [inhibitor, single point] |  |
| COC(=O)c1cc(C)nc(Sc2ccccc2N)n1 | inconclusive [inhibitor, partial curve] |  |
| CCOC(=O)c1sc(=NC(=O)c2cccc(OC)c2)n(C)c1C | inconclusive [inhibitor, single point] |  |
| CCOc1cc(C(=O)Nc2ccc3nc(N4CCN(C)CC4)cc(C)c3c2)cc(OCC)c1OCC | inconclusive [activator, partial curve] |  |
| CCOC(=O)C1=C(c2ccccc2)O/C(=C(/C#N)C(F)(F)F)S1 | inconclusive [inhibitor, partial curve] |  |
| Cc1c(C(=O)OCCOc2ccccc2)[nH]c2c1C(=O)CC(c1ccccc1Cl)C2 (stereo not drawn) | inconclusive [inhibitor, single point] |  |
| CCOC(=O)c1cccc(NC(=O)c2nn(-c3ccc(OC)cc3)c(=O)c3c2c2ccccc2n3C)c1 | inconclusive [inhibitor, partial curve, poor fit] |  |
